According to PubChem BioAssay (NCI):
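Briefly, cells in 96-well plates were exposed to five compound concentrations for 48 h, and endpoints were estimated by linear interpolation. The concentration for 50% growth inhibition is given as GI50. TGI: total growth inhibition.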

Each compound was assayed on NCI-H322M lung (assay: NCI-60 cell line screen, 48 h).

Going from c1ccc(COc2cccc3ccc[n+](Cc4ccccc4)c23)cc1 to COP(=O)(/C=C/c1cc(C(=O)OCc2ccccc2)n(S(=O)(=O)c2ccccc2)c1)OC, the TGI rises from 80.9 µM to over 100 µM.

O=c1[nH]c(Nc2nc3ccccc3[nH]2)nc(O)c1-c1ccccc1 and CCOC(=O)c1cc2nc3ccccc3c(=O)n2c2ccccc12 cannot be ordered by TGI: over 100 µM for the first, over 10 µM for the second.

COc1cc(OC)cc(-c2cc(=O)c3c(OC)c(OC)c(OC)c(OC)c3o2)c1 and COc1cc(NCc2ccc3oc(=O)c(-c4ccccc4)nc3c2)cc(OC)c1OC cannot be ordered by TGI: over 100 µM for the first, over 10 µM for the second.

Compared with O=C(CCc1nnc2sc(-c3ccc(Cl)cc3Cl)nn12)c1nc2ncccc2[nH]1, O=C(/C=C\c1ccc(Cl)c(Cl)c1)c1ccc(Cl)cc1Cl is higher in TGI: 12.4 µM for the first, over 100 µM for the second.

First: CCCCCCCCC/C=C1\CCC(CN2CCOCC2)C1=O (stereo unspecified)
Second: CCCCCCOc1ccc(C(=O)NOC)cc1
The TGI of the first is lower: 27.2 µM for the first, over 100 µM for the second.

CCN(CC)CCn1c(=O)c2cccnc2n2c3c(=O)n(C)c(=O)n(C)c3nc12 and CN(C)C1(N(C)C)Oc2c(c(=O)n(C)c(=O)n2C)C(c2ccc(Br)cc2)C1(F)F (stereo unspecified) cannot be ordered by TGI: over 100 µM for the first, over 100 µM for the second.

Oc1ccc([I+]c2ccccc2)cc1O and Cc1cc(O)c(/C=N/C(=S)NCc2ccccc2)c(=O)o1 cannot be ordered by TGI: over 100 µM for the first, over 100 µM for the second.

CCCSCC(P(=O)(O)O)P(=O)(O)O and CCOC(=O)CC(=O)ON(C)C(C)=O cannot be ordered by TGI: over 100 µM for the first, over 100 µM for the second.

First: CC1=C[C@@H]2Cc3nc4cc(Cl)ccc4c(N)c3[C@H](C1)C2
Second: CC(C)=Cc1cc(C(=O)Nc2ccc(Cl)c(Cl)c2)nc(N)n1
The TGI of the first is lower: 22.6 µM for the first, over 100 µM for the second.

O=c1c2sccc2n(CC2COc3ccccc3O2)c(=O)n1O (stereo unspecified) and COc1ccc2c(c1)OCC1Cc3ccccc3OC21 (stereo unspecified) cannot be ordered by TGI: over 100 µM for the first, over 100 µM for the second.

Going from OCc1ccc(-c2ccc(-c3ccc(CO)s3)o2)s1 to CCN1c2ccccc2C(C(SC)S(=O)(=O)c2ccc(C)cc2)c2c1[nH]c(=O)n(C)c2=O (stereo unspecified), the TGI rises from 38.8 µM to over 100 µM.

First: C[C@@H]1CCC2[C@@H](C)[C@@H](OCC(CO[C@H]3OC4O[C@@]5(C)CC[C@H]6[C@H](C)CCC([C@H]3C)[C@@]46OO5)OC(=O)CCC(=O)O)OC3O[C@@]4(C)CC[C@@H]1[C@]32OO4 (stereo partly specified)
Second: CC(C)[C@H]1COC(=O)N1[C@@H]1C(=O)N([C@@H](CCC(=O)N2CCN(C3CCCC3)CC2)C(=O)N[C@@H]2CCCc3ccccc32)[C@@H]1/C=C/c1cccc(Br)c1
The TGI of the first is 2.4-fold higher: 32.5 µM for the first, 13.4 µM for the second.

CCOC(=O)c1cn2c(nc1=O)N[C@H]1CCCC[C@@H]12 and Cc1cn(C2CC(O)C(CO)O2)c(=O)[nH]c1=O (stereo unspecified) cannot be ordered by TGI: over 100 µM for the first, over 3870 µM for the second.

First: C=CCSc1nnc2cc(CN3CCCC3)c(-c3ccc(Cl)cc3)nn12
Second: CCN1CCN(c2nc(C)cc(N(CCNc3ccnc4cc(Cl)ccc34)Cc3ccc4c(c3)OCO4)n2)CC1
The TGI of the first is 4.1-fold higher: 32.8 µM for the first, 8.07 µM for the second.

COc1ccc(/C=C(/C#N)n2nnc3cccc(F)c32)cc1 and COc1ccc(-c2nc(SCC(=O)N/N=C/c3ccc(N(C)C)cc3)[nH]c2-c2ccc(OC)cc2)cc1 cannot be ordered by TGI: over 100 µM for the first, over 100 µM for the second.

Going from CCc1cc(Cc2cc(CC)c(NC(=O)C(=O)Cc3ccccn3)c(CC)c2Cl)c(Cl)c(CC)c1NC(=O)C(=O)Cc1ccccn1 to CCOC(=O)c1nc2c(nc1C(=O)OCC)C(=O)c1ccccc1C2=O, the TGI falls from over 100 µM to 3.6 µM.

Compared with COc1cc(/C=C2\CN(S(=O)(=O)c3ccccc3)C/C(=C\c3cc(CN4CCCC4)c(O)c(OC)c3)C2=O)cc(CN2CCCC2)c1O, COc1cc2c(c(OC)c1OC)-c1ccc(OC)c(=O)cc1C(NC(=O)c1ccc(N=[N+]=[N-])cc1)CC2 (stereo unspecified) is higher in TGI: 2.84 µM for the first, over 100 µM for the second.

CC(C)OP(=O)(OC(C)C)C(=NCCN=C(NNc1ccc([N+](=O)[O-])cc1)P(=O)(OC(C)C)OC(C)C)NNc1ccc([N+](=O)[O-])cc1 and COc1ccc(S(=O)(=O)NNS(C)(=O)=O)cc1 cannot be ordered by TGI: over 100 µM for the first, over 100 µM for the second.

Compared with O=C(/C=C/c1ccncc1)c1cc(Cl)ccc1O, NS(=O)(=O)c1cc(Cl)c(NC(=S)NC(=O)Nc2ccc(Cl)c(Cl)c2)c(Cl)c1 is higher in TGI: 33.2 µM for the first, over 100 µM for the second.

O=C1NCC2(CCN(CCCC3(c4ccc(F)cc4)OCCO3)CC2)N1c1ccccc1 and CCC1(CC)C(=O)NN(C(=O)c2ccccc2)C1=O cannot be ordered by TGI: over 100 µM for the first, over 100 µM for the second.

Going from CCN(CC)c1ccc(-c2cc(-c3cc(OC)c(OC)c(OC)c3)nc(N3CCOCC3)c2C#N)cc1 to COc1cc2c3c(n(C)c(=O)c2cc1OC)-c1cc2c(cc1/C3=C\CCCN)OCO2, the TGI falls from over 100 µM to 53.1 µM.

Going from OCC#Cc1ccccc1C#Cc1ccccc1 to Cc1cc2c(cc1Cl)SC(N(N(C)C)S(=O)(=O)c1ccc(Cl)cc1)=NS2(=O)=O, the TGI rises from 30 µM to over 100 µM.

Going from OC(c1cc(-c2ccc(C(F)(F)F)cc2)nc(-c2ccc(C(F)(F)F)cc2)c1)C1CCCCN1 (stereo unspecified) to O=C1OC(O)[C@@H]2[C@H]1[C@H]1CC[C@@H]2O1 (stereo partly specified), the TGI rises from 3.14 µM to over 100 µM.

With CS(=O)(=O)OCC(CCl)(CCl)CCl the TGI was over 100 µM.

First: O=C(CCc1nnc2sc(-c3ccc(Cl)cc3Cl)nn12)c1nc2ncccc2[nH]1
Second: O=C(/C=C/c1ccncc1)c1cc(Cl)ccc1O
The GI50 of the first is 6.1-fold lower: 2.94 µM for the first, 18 µM for the second.

Compared with O=c1c2sccc2n(CC2COc3ccccc3O2)c(=O)n1O (stereo unspecified), CC(C)[C@H]1COC(=O)N1[C@@H]1C(=O)N([C@@H](CCC(=O)N2CCN(C3CCCC3)CC2)C(=O)N[C@@H]2CCCc3ccccc32)[C@@H]1/C=C/c1cccc(Br)c1 is 9.5-fold lower in GI50: 28.4 µM for the first, 2.98 µM for the second.

First: C[C@@H]1CCC2[C@@H](C)[C@@H](OCC(CO[C@H]3OC4O[C@@]5(C)CC[C@H]6[C@H](C)CCC([C@H]3C)[C@@]46OO5)OC(=O)CCC(=O)O)OC3O[C@@]4(C)CC[C@@H]1[C@]32OO4 (stereo partly specified)
Second: O=C1OC(O)[C@@H]2[C@H]1[C@H]1CC[C@@H]2O1 (stereo partly specified)
The GI50 of the first is lower: 10.2 µM for the first, over 78.6 µM for the second.

Going from COc1ccc(/C=C(/C#N)n2nnc3cccc(F)c32)cc1 to CCN(CC)c1ccc(-c2cc(-c3cc(OC)c(OC)c(OC)c3)nc(N3CCOCC3)c2C#N)cc1, the GI50 rises from 2.59 µM to 12.1 µM (4.7-fold).

First: CCN1CCN(c2nc(C)cc(N(CCNc3ccnc4cc(Cl)ccc34)Cc3ccc4c(c3)OCO4)n2)CC1
Second: COc1cc2c3c(n(C)c(=O)c2cc1OC)-c1cc2c(cc1/C3=C\CCCN)OCO2
The GI50 of the first is 6.4-fold lower: 2.52 µM for the first, 16.2 µM for the second.

Going from COc1cc(/C=C2\CN(S(=O)(=O)c3ccccc3)C/C(=C\c3cc(CN4CCCC4)c(O)c(OC)c3)C2=O)cc(CN2CCCC2)c1O to Cc1cc2c(cc1Cl)SC(N(N(C)C)S(=O)(=O)c1ccc(Cl)cc1)=NS2(=O)=O, the GI50 rises from 1.43 µM to 33.4 µM (23-fold).

Compared with OCC#Cc1ccccc1C#Cc1ccccc1, OC(c1cc(-c2ccc(C(F)(F)F)cc2)nc(-c2ccc(C(F)(F)F)cc2)c1)C1CCCCN1 (stereo unspecified) is 10-fold lower in GI50: 16.1 µM for the first, 1.59 µM for the second.
